# Measured values: a collection of fitness landscapes (doi:10.1016/j.celrep.2020.107928)
# The full ranking holds about 81,000 sequences; the median of “one-hybrid fitness for binding NBS DNA” is about -0.1, and the highest 2% start at about 0.36. The list shows a part of the results.
# B1: Caulobacter ParB omega fusion; a variant is named by its letters at X, in order, B8GW30 (parent)
# chain: MESVVVGEPGMSEGRRGLGRGLSALLGEVDAAPAQAPGEQLGGSREAPIEILQRNPDQPRRTFREEDLEDLSNSIREKGVLQPILVRPSPDTAGEYQIVAGERAWRAAQRAGLKTVPIMVRELDDLAVLEIGIIENVQRADLNVLEEALSYKVLMEKFERTQENIAQTIGKSXSHVANXMRLLXLPDEVQSYLVSGELTAXHARAIAAAADPVALAKQIIEGGLSVRETEALARKAPNLSAGKSKGGRPPRVKDTDTQALESDLSSVLGLDVSIDHRGSTGTLTITYATLEQLDDLCNRLTRGI
# Variants of: B1
# Assay: one-hybrid fitness for binding NBS DNA (the Noc-binding site; scaled: cognate 1, non-cognate 0); higher = stronger binding
# Conditions: with NBS DNA site
# Method in brief: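 In E. coli USO, a HIS3 reporter with its site placed 19 bp from the promoter was used to select Caulobacter ParB variants randomised at four specificity codons. Growth lasted 48 hours at 37°C on histidine-free M9 containing 0.1 mM IPTG and 5 mM 3-AT. Fitness was taken as the log change in variant-to-wild-type read ratio from Illumina sequencing of pre- and post-selection plasmids, rescaled between the non-cognate and cognate sites.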
row,Variant,one-hybrid fitness for binding NBS DNA
1,FHQS,≤ 0.2
2,PHNM,≤ 0.2
3,QSVH,≤ 0.2
4,FYPI,≤ 0.2
5,LIIQ,≤ 0.2
6,GKPR,≤ 0.2
7,FTAC,≤ 0.2
8,QRDI,≤ 0.2
9,TMGG,≤ 0.2
10,HLIM,≤ 0.2
11,FSQL,≤ 0.2
12,WWAG,≤ 0.2
13,EAPI,≤ 0.2
14,QIEV,≤ 0.2
15,SRFW,≤ 0.2
16,VYGG,≤ 0.2
17,DPRS,≤ 0.2
18,FYLS,≤ 0.2
19,HIPY,≤ 0.2
20,KDCY,≤ 0.2
21,AVEL,≤ 0.2
22,QLYK,≤ 0.2
23,GRHT,≤ 0.2
24,RQVE,≤ 0.2

row,Variant,one-hybrid fitness for binding NBS DNA
1,VSIA,≤ 0.2
2,CAVV,≤ 0.2
3,CWAG,≤ 0.2
4,IQLR,≤ 0.2
5,TVHF,≤ 0.2
6,LTGQ,≤ 0.2
7,WCLP,≤ 0.2
8,HESP,≤ 0.2
9,QPED,≤ 0.2
10,FFAR,≤ 0.2
11,PWCE,≤ 0.2
12,DGGG,≤ 0.2
13,RIPW,≤ 0.2
14,TQRA,≤ 0.2
15,DLYT,≤ 0.2
16,NKKG,≤ 0.2
17,RTLT,0.461
18,CLTI,≤ 0.2
19,SPEW,≤ 0.2
20,FMYL,≤ 0.2
21,DFWG,≤ 0.2
22,KRLP,≤ 0.2
23,VGHA,≤ 0.2
24,GPQI,≤ 0.2

row,Variant,one-hybrid fitness for binding NBS DNA
1,LQNF,≤ 0.2
2,VIKN,≤ 0.2
3,MDRW,≤ 0.2
4,TVRG,≤ 0.2
5,AADC,≤ 0.2
6,MTKT,≤ 0.2
7,NIHS,≤ 0.2
8,QRFV,0.275
9,GVWS,≤ 0.2
10,CDIT,≤ 0.2
11,ATKG,≤ 0.2
12,HLLH,≤ 0.2
13,NPAT,≤ 0.2
14,MLQR,≤ 0.2
15,RPDI,≤ 0.2
16,TEPE,≤ 0.2
17,GHYG,≤ 0.2
18,GTRE,≤ 0.2
19,RTTK,≤ 0.2
20,KQNC,≤ 0.2
21,TKEC,≤ 0.2
22,NASI,≤ 0.2
23,HQHI,≤ 0.2
24,GLER,≤ 0.2

row,Variant,one-hybrid fitness for binding NBS DNA
1,LSQA,≤ 0.2
2,QMST,0.457
3,FKCG,≤ 0.2
4,CETK,≤ 0.2
5,NYSG,≤ 0.2
6,FVHV,≤ 0.2
7,LSKD,≤ 0.2
8,PTLV,≤ 0.2
9,RLHN,≤ 0.2
10,TPMD,≤ 0.2
11,RSRI,≤ 0.2
12,QIYL,≤ 0.2
13,AKNA,≤ 0.2
14,QNYS,≤ 0.2
15,QSHC,≤ 0.2
16,GREF,≤ 0.2
17,QVTS,0.257
18,PGTV,≤ 0.2
19,IIIT,≤ 0.2
20,MCKA,≤ 0.2
21,FSPG,≤ 0.2
22,CNSC,≤ 0.2
23,AWGL,≤ 0.2
24,AVDG,≤ 0.2

row,Variant,one-hybrid fitness for binding NBS DNA
1,PCGF,≤ 0.2
2,DVRD,≤ 0.2
3,VSSR,≤ 0.2
4,HQFT,≤ 0.2
5,GRRW,≤ 0.2
6,RCKQ,0.254
7,HENR,≤ 0.2
8,RQWV,≤ 0.2
9,ATPL,≤ 0.2
10,CSDC,≤ 0.2
11,FNTP,≤ 0.2
12,TNDL,≤ 0.2
13,CHTG,≤ 0.2
14,PVIN,≤ 0.2
15,PEWS,≤ 0.2
16,DVSM,≤ 0.2
17,RDEQ,≤ 0.2
18,ASTF,≤ 0.2
19,RLFS,≤ 0.2
20,ITIR,≤ 0.2
21,DCVK,≤ 0.2
22,GQRA,≤ 0.2
23,PIPG,≤ 0.2
24,KYDG,≤ 0.2

row,Variant,one-hybrid fitness for binding NBS DNA
1,HMGT,≤ 0.2
2,NANT,≤ 0.2
3,KRVD,≤ 0.2
4,PFAL,≤ 0.2
5,LTVC,≤ 0.2
6,RQKR,0.752
7,ELQT,≤ 0.2
8,RNEA,≤ 0.2
9,TTYY,≤ 0.2
10,ICTY,≤ 0.2
11,ARVT,≤ 0.2
12,KRCG,≤ 0.2
13,SVDS,≤ 0.2
14,CLQY,≤ 0.2
15,RKIK,≤ 0.2
16,LGKK,≤ 0.2
17,KHKS,≤ 0.2
18,QHAN,≤ 0.2
19,YVNT,≤ 0.2
20,VASE,≤ 0.2
21,TIQR,≤ 0.2
22,NYGG,≤ 0.2
23,DDLT,≤ 0.2
24,SLDL,≤ 0.2

row,Variant,one-hybrid fitness for binding NBS DNA
1,NQHL,≤ 0.2
2,VWNT,≤ 0.2
3,WIFR,≤ 0.2
4,KTLF,≤ 0.2
5,QWLD,≤ 0.2
6,KFTK,≤ 0.2
7,TTAG,≤ 0.2
8,MSKG,≤ 0.2
9,WDNC,≤ 0.2
10,TNPA,≤ 0.2
11,NHYT,≤ 0.2
12,CGLC,≤ 0.2
13,PPNA,≤ 0.2
14,GYSF,≤ 0.2
15,DIAG,≤ 0.2
16,QNFG,≤ 0.2
17,MITK,≤ 0.2
18,KIFS,≤ 0.2
19,GPKS,≤ 0.2
20,AFHT,≤ 0.2
21,KNLT,≤ 0.2
22,MFKE,≤ 0.2
23,IPRL,≤ 0.2
24,LMRI,≤ 0.2

row,Variant,one-hybrid fitness for binding NBS DNA
1,FGAE,≤ 0.2
2,EETS,≤ 0.2
3,RSWQ,≤ 0.2
4,LYEL,≤ 0.2
5,AIFN,≤ 0.2
6,KTCA,≤ 0.2
7,CAQW,≤ 0.2
8,VYVC,≤ 0.2
9,NRRT,≤ 0.2
10,DDLM,≤ 0.2
11,VSAF,≤ 0.2
12,QLDH,≤ 0.2
13,ASEV,≤ 0.2
14,RNPH,≤ 0.2
15,PANH,≤ 0.2
16,HFGS,≤ 0.2
17,THPA,≤ 0.2
18,APGI,≤ 0.2
19,SYTY,≤ 0.2
20,IEVV,≤ 0.2
21,AHEQ,≤ 0.2
22,MKGR,≤ 0.2
23,PSCL,≤ 0.2
24,VNCL,≤ 0.2

row,Variant,one-hybrid fitness for binding NBS DNA
1,NGDR,≤ 0.2
2,QGKK,≤ 0.2
3,CWRR,≤ 0.2
4,LKDT,≤ 0.2
5,NCKE,≤ 0.2
6,QFAP,≤ 0.2
7,NLIM,≤ 0.2
8,RGWR,≤ 0.2
9,RCDT,0.266
10,RYAT,0.461
11,PDLW,≤ 0.2
12,GVIS,≤ 0.2
13,FDYR,≤ 0.2
14,GEFN,≤ 0.2
15,IEVS,≤ 0.2
16,PCVF,≤ 0.2
17,NPLG,≤ 0.2
18,IIDG,≤ 0.2
19,TGPQ,≤ 0.2
20,PWLD,≤ 0.2
21,KATI,≤ 0.2
22,FATT,≤ 0.2
23,LMCG,≤ 0.2
24,HNEA,≤ 0.2

row,Variant,one-hybrid fitness for binding NBS DNA
1,CCTS,≤ 0.2
2,KPHR,≤ 0.2
3,GLRT,≤ 0.2
4,CVTF,≤ 0.2
5,QCHE,≤ 0.2
6,TFLA,≤ 0.2
7,CSMR,≤ 0.2
8,LISL,≤ 0.2
9,LIDG,≤ 0.2
10,PCPR,≤ 0.2
11,PAQG,≤ 0.2
12,LDLG,≤ 0.2
13,TIVR,≤ 0.2
14,CTMG,≤ 0.2
15,PCHF,≤ 0.2
16,RRSC,0.291
17,VAVL,≤ 0.2
18,ASYE,≤ 0.2
19,DNAS,≤ 0.2
20,SRAR,≤ 0.2
21,PFQS,≤ 0.2
22,DQTI,≤ 0.2
23,EIQV,≤ 0.2
24,KWVW,≤ 0.2

row,Variant,one-hybrid fitness for binding NBS DNA
1,MINS,≤ 0.2
2,SVIM,≤ 0.2
3,VFIS,≤ 0.2
4,YSFT,≤ 0.2
5,FAYY,≤ 0.2
6,QLIR,0.294
7,DQCS,≤ 0.2
8,FPFG,≤ 0.2
9,DRTR,≤ 0.2
10,RPHY,≤ 0.2
11,QLIL,≤ 0.2
12,YSHA,≤ 0.2
13,GPQG,≤ 0.2
14,NHER,≤ 0.2
15,WKVT,≤ 0.2
16,QHNY,0.205
17,YGRG,≤ 0.2
18,CDSD,≤ 0.2
19,HGAE,≤ 0.2
20,NSNG,≤ 0.2
21,KCRV,≤ 0.2
22,MLTC,≤ 0.2
23,RMDW,≤ 0.2
24,AVKR,≤ 0.2

row,Variant,one-hybrid fitness for binding NBS DNA
1,AQNT,≤ 0.2
2,CLHG,≤ 0.2
3,YLPF,≤ 0.2
4,RDTK,≤ 0.2
5,LSFC,≤ 0.2
6,ATFL,≤ 0.2
7,TMGW,≤ 0.2
8,RCSQ,≤ 0.2
9,TNAT,≤ 0.2
10,RDQY,≤ 0.2
11,GMSS,≤ 0.2
12,KCHR,≤ 0.2
13,RMWH,≤ 0.2
14,LAAL,≤ 0.2
15,SIHM,≤ 0.2
16,HPSS,≤ 0.2
17,PYDH,≤ 0.2
18,YDPT,≤ 0.2
19,NNIS,≤ 0.2
20,GMPW,≤ 0.2
21,DDHL,≤ 0.2
22,QSYA,0.208
23,ASCY,≤ 0.2
24,HMRA,≤ 0.2

row,Variant,one-hybrid fitness for binding NBS DNA
1,WWLL,≤ 0.2
2,YSVP,≤ 0.2
3,VGIR,≤ 0.2
4,QSDE,≤ 0.2
5,TLCR,≤ 0.2
6,ASRG,≤ 0.2
7,DVVH,≤ 0.2
8,REKY,≤ 0.2
9,WMPS,≤ 0.2
10,HWCG,≤ 0.2
11,FRTM,≤ 0.2
12,PDNG,≤ 0.2
13,QKDT,0.401
14,DVWR,≤ 0.2
15,TSCG,≤ 0.2
16,YNTH,≤ 0.2
17,ANAS,≤ 0.2
18,YERR,≤ 0.2
